Experimental data: PMC12136788
Numbering of substitutions follows the chain as printed. Some of the results follow.

B1: chr2:73730642:73730743:-|CDS|ENSG00000144034|unk|total|mutant (ssRNA)
RNA: GGGAGUUCUACAGUCCGACGAUCUUCAGACGCCGGAAACAAUGGUUAAUGAUCUUGUGUUUUUUUUUUCAUUUUUUUUCUCUCCGAUUUCAGAGGCUUUGAAAAAAUUUGGUAUCUCAGCAAAUGACACUUCAAUUCUAAUUGCAACAGAGGAUUGAGCAUCA
B2: chr1:93353930:93354034:+|CDS|ENSG00000117505|unk|total|mutant (ssRNA)
RNA: GGGAGUUCUACAGUCCGACGAUCUUUGGGAUUUGGCUCUUACAUCAGUGAAGUAAAAGAAGUCUUGCAAGAGUGUAAAACAGCCGCAUUAAAAAGAAGAAAGGCCAGUUCUCGUUUGGAAAACCUUGGCAUUCCUGAAGAAGACAACAGAGGAUUGAGCAUCA
B3: chr2:167954955:167954998:-|3pUTR|ENSG00000198648|msi1_unk|total|mutant (ssRNA)
RNA: GGGAGUUCUACAGUCCGACGAUCGUUGUAUUCCGAAAUUAAUAUACUUAUAAAAUUAAGAUUUAUCCGCCAAACUUGAAUUCCCGUUUUAAAACUGACUGUGAAUUUUAUUUUUCAUAUAUUUAUGCAUUACACACCUCCGCUCAACAGAGGAUUGAGCAUCA
B4: chr1:150647640:150647741:-|3pUTR|ENSG00000143457|unk|total|mutant (ssRNA)
RNA: GGGAGUUCUACAGUCCGACGAUCAGAUUCAAUUACCUGGAUGUCAAAGUCCCCGAGCCAGAAAUAUAUUCUCUCAUCCCUCUCCGCAUUCUCUUGCUCCCUCAUUCACCCGGGCAAAUGUCUAAAUGAAGAAAAGUCUCUCUCCAACAGAGGAUUGAGCAUCA
B5: chr5:103210461:103210562:+|3pUTR|ENSG00000145725|unk|FALSE|unique (ssRNA)
RNA: GGGAGUUCUACAGUCCGACGAUCGAAUAAGGAGCUGGGAGAAAGGAGACCUGGGUAUUAAUCUCAGCUCUACCACUACAUGGUAGAGCUAUGUAGUGGUAGACUAUCUGGGAGACUCUAGAAUCUUUACCAUUCCCUCUACUACAACAGAGGAUUGAGCAUCA
B6: ENSG00000136451:be:win_151|CDS|ENSG00000136451|bound_else_gene|NA|bound_elsewhere_windowed (ssRNA)
RNA: GGGAGUUCUACAGUCCGACGAUCAAACCUCAGGGUGCACCAGAAACAUUAAAGGAUGCCAUUGGGAUUAAAAAAGAAAAACCCAAAACUUCAUUUGUGUGCACUUACUGCAGUAAAGCUUUCAGGGACAGCUAUCACCUGAGGCAACAGAGGAUUGAGCAUCA
B7: ENSG00000044524:stop:overlap|stop_codon|ENSG00000044524|stop_codon|NA|stop_codon (ssRNA)
RNA: GGGAGUUCUACAGUCCGACGAUCACAGCCGCAAGUUUGAGUUUGAAACUAGUCCAGACUGUAUGUAUUAUUUCAAUGCAGUCUAGAGGAGGGGGCAGGGAUCUUGCAAAAGAUGUCUGAUCGUUUAUUCUCACUGUUUCUAAGCAACAGAGGAUUGAGCAUCA
B8: chr14:49622334:49622435:+|CDS|ENSG00000168282|unk|total|mutant (ssRNA)
RNA: GGGAGUUCUACAGUCCGACGAUCCAAUACUUGACUGUAUCUUGUCUUCCAAAAUUCUGGAAAGUGCUGGUUCCUCAAAUUCCCCGGAUCUUUCAUGCUGGAGACUGUGGUAUGCAUCACAAGAAAACCUGCCGACCAUCCACUCAACAGAGGAUUGAGCAUCA
B9: chrX:71240429:71240530:-|3pUTR|ENSG00000147130|msi1|total|mutant (ssRNA)
RNA: GGGAGUUCUACAGUCCGACGAUCGGCUUUGGGUUUCCUGACCCAUCCCGCACCGGCCGAGCCUCUUGUUCCCCGGCAUGACCCCGGGAAAAACCCAGCUGCCUUCUCUGCCCUGUGCCCACUCCCUUCUCUACUCUUCCCCAGCAACAGAGGAUUGAGCAUCA
B10: chr1:212100457:212100572:+|CDS|ENSG00000143476|unk|FALSE|unique (ssRNA)
RNA: GGGAGUUCUACAGUCCGACGAUCAGAAGAGGCUCUGUCUCCUCCGUCUCUCCCAAGCCACCUUCAUCUUUCAAGAUGUCGAUUAGAAACUGGGUGACCCGAACACCUUCCUCAUCACCACCCAUCACUCCACCUGCUUCGGAGCAACAGAGGAUUGAGCAUCA
B11: chr22:19969400:19969501:+|3pUTR|ENSG00000093010|msi1|total|mutant (ssRNA)
RNA: GGGAGUUCUACAGUCCGACGAUCUCCCCACUGGGCCUUGCUUACAGAAGAGGCAAUGGCUCAGACCAGCUCCCGCAUCCCUGCCGUUGCCUCCCUGGCCCAUGAGUGAGGAUGCAGUGCUGGUUUCUGCCCACCUACACCCCGCAACAGAGGAUUGAGCAUCA
B12: chr19:39539560:39539696:-|CDS|ENSG00000176396|unk|total|mutant (ssRNA)
RNA: GGGAGUUCUACAGUCCGACGAUCCGGGAACGGAGGCCUGGCUGCGUUGCCCUAUCUCCGUCUCCGCCACCCACUCCGCGUUUCCGGCAUCAAUUACCAGCAGUUUCUCCGCCACUAUCUGGAAAAUUACCCGAUUGCUCCCGGCAACAGAGGAUUGAGCAUCA
B13: chr1:21217244:21217432:-|3pUTR|ENSG00000117298|msi1|total|mutant (ssRNA)
RNA: GGGAGUUCUACAGUCCGACGAUCCCGCUCCAGAGCUUUAAGGAAAAUGAAGUGAGACCCCUCCCCUCCGGCCUGGGGAGCCACCGGGCUGGCUUCUCUGUGGGUGCGUGGACGUGGGGUUGGGAGCUGGGAAUCUAUUUUUUGCAACAGAGGAUUGAGCAUCA
B14: chr9:14722165:14722672:-|CDS|ENSG00000147869|control|control|control (ssRNA)
RNA: GGGAGUUCUACAGUCCGACGAUCAUCCAGGGACUCAGAUAGUGAGCCCUUCCCACCUGGGACCCAGUCCCUCAUCCAGCCGAUAGAUGGAAUGAAAAUGGAGAAAUCUCCUCUUCGGGAAGAAGCCAAGAAAUUCUGGCACCACAACAGAGGAUUGAGCAUCA
B15: chr1:100520103:100520216:+|3pUTR|ENSG00000079335|unk|total|mutant (ssRNA)
RNA: GGGAGUUCUACAGUCCGACGAUCUUACACAUGUGCCUACACCGACACACCAAGAAGUGGAUGUAUAUAAUACCGAAAGUAUACCGCAAAGUAAUUUUACUCUGAUAAUAAAAAUUGUUUGACAUGUAUUUUGUUAUGAACCGUCAACAGAGGAUUGAGCAUCA
B16: chr2:73730642:73730743:-|CDS|ENSG00000144034|unk|FALSE|unique (ssRNA)
RNA: B1 RNA with C32U, C33A, C83U, C84A
B17: ENSG00000136451:be:win_2301|3pUTR|ENSG00000136451|bound_else_gene|NA|bound_elsewhere_windowed (ssRNA)
RNA: GGGAGUUCUACAGUCCGACGAUCAAAAAUCUACAAAUUGUGUUUUGCUAAGAAAAGCCUCAACUGACAGAGGAGAAGUCAAGUGUGUGGACAGGCAAGCUCCUAAUAAACAGAGUCCAGUGGGAUUCCUAUUUAGGAGCCAAGCAACAGAGGAUUGAGCAUCA
B18: chr4:68930545:68930765:-|CDS|ENSG00000135220|control|control|control (ssRNA)
RNA: GGGAGUUCUACAGUCCGACGAUCUCCCAUAUUUGGUGAUCAGCUUGAUAACAUAGCUCACAUGAAGGCCAAAGGAGCAGCUGUAGAAAUAAACUUCAAAACUAUGACAAGCGAAGAUUUACUGAGGGCUUUGAGAACAGUCAUCAACAGAGGAUUGAGCAUCA
B19: chr14:103503186:103503248:+|CDS_3pUTR|ENSG00000075413|msi1_unk|total|mutant (ssRNA)
RNA: GGGAGUUCUACAGUCCGACGAUCUGCUUCCAAAAUUGCCAAUGAGCUAAAGCUGUAACCCAGUGAUUAUGAUGUAAAUUAAGCCGCAAUUAAAGUGUUUUCCUGAACACUGAUGGAAAUGUACCGAAUAAUAUUCCGGCAAUACAACAGAGGAUUGAGCAUCA
B20: ENSG00000107863:be:win_3651|CDS|ENSG00000107863|bound_else_gene|NA|bound_elsewhere_windowed (ssRNA)
RNA: GGGAGUUCUACAGUCCGACGAUCUGUGAUAAGCAGUUUACUAAAAUCCUUCUUCAGAAAACUCCCUGAGCCUCUCUUCACAAAUGAUAAAUAUGCUGAUUUUAUUGAAGCCAAUCGUAAAGAAGAUCCUCUAGAUCGUCUGAACAACAGAGGAUUGAGCAUCA
B21: chr6:32292983:32294035:-|CDS|ENSG00000204296|control|control|control (ssRNA)
RNA: GGGAGUUCUACAGUCCGACGAUCACAGGAAGCCCAGGUAGAGAAGAGUGAGUUGAAGGUACCAAAAGGACAAGAAGGCCAAGUAGAGAAGACUGAGGCAGAUGUGCCAAAGGAACAAGAGGUCCAAGAAAAGAAGAGUGAGGCCAACAGAGGAUUGAGCAUCA
B22: chr5:103029089:103029184:+|3pUTR|ENSG00000145730|msi1_unk|total|mutant (ssRNA)
RNA: GGGAGUUCUACAGUCCGACGAUCAACCAAGCUUUGAUUCCGAUUGAGUAAGAUUUACCCAGAAUGUCAGAUUCCUUUCCCUUCCGCACGUUUAAAGUUCUGUGUAUUUAAUUGUAAACUGUACCCGUCUGUGUGGGACUGUACCAACAGAGGAUUGAGCAUCA

Target: MSI1 full-length (mouse, UniProt Q61474 1-362)
UniProt Q61474, sequence (Q61474 whole entry): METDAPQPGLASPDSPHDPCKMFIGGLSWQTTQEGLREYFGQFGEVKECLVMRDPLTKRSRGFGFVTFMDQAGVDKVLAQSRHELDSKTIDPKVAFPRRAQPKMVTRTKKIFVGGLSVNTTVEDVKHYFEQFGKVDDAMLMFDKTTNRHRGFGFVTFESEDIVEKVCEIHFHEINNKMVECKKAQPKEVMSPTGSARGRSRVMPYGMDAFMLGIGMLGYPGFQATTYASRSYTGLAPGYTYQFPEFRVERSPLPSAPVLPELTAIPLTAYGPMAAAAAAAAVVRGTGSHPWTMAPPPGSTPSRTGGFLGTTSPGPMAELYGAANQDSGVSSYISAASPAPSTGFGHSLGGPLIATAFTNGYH
Test: nsRBNS (natural sequence RNA bind-n-seq); RBNS binding buffer (assumed for nsRBNS): 25 mM Tris pH 7.5, 150 mM KCl, 3 mM MgCl2, 0.01% Triton X-100, 500 ug/ml BSA, 20 U/ml SUPERase-In, 4 C; UNK is unkempt and MSI1 is Musashi-1; names of the RNAs are library labels; protein concentration not given here; high values mean tight binding

Row | Binder | binding signal [enrichment R]
1 | B1 | 0.259
2 | B2 | 0.365
3 | B3 | 3.64
4 | B4 | 0.728
5 | B5 | 0.914
6 | B6 | 0.372
7 | B7 | 1.31
8 | B8 | 0.329
9 | B9 | 0.722
10 | B10 | 0.509
11 | B11 | 0.313
12 | B12 | 0.469
13 | B13 | 0.421
14 | B14 | 1.14
15 | B15 | 0.652
16 | B16 | 0.897
17 | B17 | 0.431
18 | B18 | 0.57
19 | B19 | 0.329
20 | B20 | 0.44
21 | B21 | 1.38
22 | B22 | 0.488
